{"source": "ChEMBL document CHEMBL3885881", "about": "“DrugMatrix”", "species": "Rattus norvegicus", "assay": "DrugMatrix - Regimen: Daily Repeat", "format": "toxicity, organism-based, Sprague-Dawley", "parameters": "regimen Daily Repeat, gender Male, age 6-8 weeks", "details": "in vivo, po, 0 mg/kg, 120 h, tissue Plasma, route oral GAVAGE, dose level Control, time 5 day, vehicle .5 % CMC", "note": "Some entries of the source have several records that differ or are many. This is not the full list of results. The source may hold further records. Results that share an entry are repeated measurements in other runs, samples, wells, individuals or studies. A tag in brackets gives the origin of a value. A, B and so on number the origins entry by entry.", "data": [{"smiles": "Cc1ccc2cc3c(ccc4ccccc43)c3c2c1CC3", "note": "[3-METHYLCHOLANTHRENE]", "values": [{"measurement": "TOTAL BILIRUBIN", "result": "0.18 mg/dL [study A] and 0.55 mg/dL [study B]"}]}]}
